Experimental data published in PMC4336329 (PLoS ONE, 2015).
The campaign covered roughly 310,000 compounds. About 2,200 (0.71%) showed an effect of 50% or more. Effects have a minus sign here. The list shows a part of the results.

What follows are molecules tested against human ether-à-go-go-related gene (hERG) potassium channel (human, UniProt Q12809) (assay: primary screen, population patch clamp on CHO cells stably expressing hERG).
Chain of human ether-à-go-go-related gene (hERG) potassium channel (Q12809 whole entry, looked up): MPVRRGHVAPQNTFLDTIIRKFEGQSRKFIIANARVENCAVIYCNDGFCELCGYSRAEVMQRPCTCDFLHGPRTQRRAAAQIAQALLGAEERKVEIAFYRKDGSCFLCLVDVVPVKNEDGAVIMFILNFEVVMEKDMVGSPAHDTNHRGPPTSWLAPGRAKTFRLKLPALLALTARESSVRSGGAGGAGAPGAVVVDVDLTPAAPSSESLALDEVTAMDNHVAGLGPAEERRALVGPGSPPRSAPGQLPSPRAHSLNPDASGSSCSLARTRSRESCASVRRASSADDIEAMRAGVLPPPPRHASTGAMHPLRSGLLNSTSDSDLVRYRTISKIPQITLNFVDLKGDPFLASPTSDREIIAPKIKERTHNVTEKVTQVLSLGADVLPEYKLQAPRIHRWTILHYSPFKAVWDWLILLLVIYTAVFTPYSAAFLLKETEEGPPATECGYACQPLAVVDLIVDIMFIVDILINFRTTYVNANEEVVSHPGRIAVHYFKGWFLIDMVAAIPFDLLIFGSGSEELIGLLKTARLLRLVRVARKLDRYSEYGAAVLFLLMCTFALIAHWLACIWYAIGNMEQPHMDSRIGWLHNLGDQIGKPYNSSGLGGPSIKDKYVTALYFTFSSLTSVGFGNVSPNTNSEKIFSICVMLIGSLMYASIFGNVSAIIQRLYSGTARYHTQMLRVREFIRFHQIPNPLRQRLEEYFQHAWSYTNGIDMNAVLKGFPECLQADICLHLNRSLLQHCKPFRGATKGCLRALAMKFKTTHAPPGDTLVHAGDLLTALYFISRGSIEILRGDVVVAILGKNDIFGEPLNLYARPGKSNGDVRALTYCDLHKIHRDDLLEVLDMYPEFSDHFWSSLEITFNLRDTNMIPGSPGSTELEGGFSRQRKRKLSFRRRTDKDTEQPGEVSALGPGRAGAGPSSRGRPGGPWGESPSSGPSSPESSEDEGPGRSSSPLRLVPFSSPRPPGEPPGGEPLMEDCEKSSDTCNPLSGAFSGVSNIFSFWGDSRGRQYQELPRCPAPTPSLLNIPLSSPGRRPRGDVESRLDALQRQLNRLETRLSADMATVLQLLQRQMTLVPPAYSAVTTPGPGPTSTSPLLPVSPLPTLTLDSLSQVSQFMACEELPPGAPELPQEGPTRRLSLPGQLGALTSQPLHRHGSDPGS

| Structure (SMILES) | hERG current change (%, negative = inhibition) at 1uM |
| --- | --- |
| CC(=O)C1=C(C)N(Cc2ccco2)C(=O)C1(NC(=O)C1CCCCC1)C(F)(F)F (centres unmarked) | 8.33% |
| COc1ccc(-c2nc(CS(=O)(=O)CC(=O)NCCCN3CCN(C)CC3)c(C)o2)cc1 | -4.38% |
| CCN(CC(=O)Nc1ccc(NC(C)=O)cc1)C(=O)c1ccc(NC2CC2)c([N+](=O)[O-])c1 | 22.3% |
| O=C1CCCc2nc(N3CCCCC3)sc21 | 10.1% |
| CCOC(=O)Cc1csc(NC(=O)c2ccc(S(=O)(=O)N3CCCCC3)cc2)n1 | -13.4% |
| Cn1cnc(S(=O)(=O)NCc2ccc(Br)cc2)c1 | 0.577% |
| Cc1c(C(=O)NCc2ccc3c(c2)OCO3)oc2ccc(S(=O)(=O)N3CCC(C)CC3)cc12 | 0.865% |
| Cc1cccc2nc(CSc3nnnn3-c3ccccc3)cn12 | 0.496% |
| O=C(Cc1ccc(Cl)cc1)NCCc1ccc(F)cc1 | 10.3% |
| O=C(Nc1nnc(-c2cccs2)o1)c1cccc(F)c1 | 11.8% |
| NS(=O)(=O)c1ccc(CNC(=O)c2ccc(Cl)c([N+](=O)[O-])c2)cc1 | 10.3% |
| Oc1ccc(-c2nccc(-c3ccc(F)cc3)n2)cc1 | 18.5% |
| Cc1c2cnn(CC(=O)Nc3cccc(C(F)(F)F)c3)c(=O)c2c(C)n1Cc1ccccc1F | 8.62% |
| CCn1c(SCC(=O)Nc2ccccc2)nnc1C1CCCCC1 | 23.6% |
| Cc1cc(C)n2nc(SCc3nnc(SCc4ccccc4C)s3)nc2n1 | -2.18% |
| O=C(O)CC(NC(=O)c1ccccc1NC(=O)c1ccccc1)C(=O)O (centres unmarked) | 3.71% |
| CN(C1=C(N2CCCCC2)C(=O)c2ccccc2C1=O)c1ccccc1 | 11% |
| CC(C)CCN1CCN(Cc2cccn2-c2cccnc2)CC1CCO (centres unmarked) | -9.84% |
| CCCN1CCN(CCCNC(=O)c2ccc3nc(N4CCC(C)CC4)sc3c2)CC1 | -3.22% |
| CCCCCCCN1CCN=C1Nc1ccccc1 | -12.2% |
| COC(=O)c1c(NC(=O)C(=O)NCCCN2CCOCC2)sc2c1CCCC2 | 8.68% |
| Clc1ccc(Oc2cnc3ccccc3n2)cc1 | -3.77% |

| Structure (SMILES) | hERG current change (%, negative = inhibition) at 1uM |
| --- | --- |
| CCc1ccccc1N(C)C(=O)CCc1nc(-c2ccc(C)cc2)no1 | 10.9% |
| CCOc1ccc(-c2nnn(CC(=O)c3ccc4c(c3)OCCO4)n2)cc1OCC | 8.01% |
| O=C(CSc1n[nH]c(-c2ccc(S(=O)(=O)N3CCCCC3)cc2)n1)Nc1nccs1 | 8.22% |
| Clc1ccc2[nH]c3c(NCCCN4CCOCC4)ncnc3c2c1 | -32.7% |
| Cc1noc(NC(=O)c2ccccc2)c1C#N | 7.08% |
| O=C(Cc1n[nH]c(=O)c2ccccc12)OCC(=O)c1ccccc1 | 14% |
| CCC(OC(=O)c1nsc(Cl)c1Cl)C(=O)NCCc1ccccc1 (centres unmarked) | 11.4% |
| CC(C(=O)N1CCOCC1)N1C(=O)c2cccc3cccc(c23)C1=O (centres unmarked) | 13.6% |
| C#Cc1ccc([C@H]2C=C(C(=O)NCc3ccccc3)O[C@@H](OCc3ccc(CO)cc3)C2)cc1 | 15.4% |
| CCOC(=O)c1ccc(NC(=O)COc2ccc(-n3cnnn3)cc2)cc1 | -6.84% |
| Cc1ccccc1NC(=O)c1ccc(CN2CC(=O)N3CCCCC3C2=O)cc1 (centres unmarked) | 13% |
| C(=C\c1ccncc1)/c1ccccc1 | 3.35% |
| Cc1cc(C(C)(C)C)cc(C)c1COC(=O)c1cccnc1 | 11% |
| CCCN(CC(=O)Nc1ccccc1C)C(=O)C1CC(=O)N(c2ccccc2C(C)CC)C1 (centres unmarked) | 11.8% |
| CCC1(CC)Cc2ccccc2C2=C(C(=O)N3CCCCC3)C(=O)C(=O)N21 | 5.74% |
| Cc1ccc(-c2csc3nc4c5ccccc5c(NCCCN5CCOCC5)nn4c(=O)c23)cc1 | 1.52% |
| CSCc1c(C(=O)Nc2ccc(N3CCOCC3)cc2)oc2ccccc12 | 3.32% |
| Cc1cc(=O)oc(C)c1C(=O)O | 6.87% |
| COc1ccc(-n2c(=O)c(CCC(=O)N3CCN(c4ccccc4O)CC3)nc3ccccc32)cc1 | -7.47% |
| Cc1ccc(S(=O)(=O)Nc2ccccc2C(=O)N2CCOCC2)cc1 | 8.26% |
| CC(c1ccccc1)n1c(-c2cccs2)nc2c(c(=O)c3ccccc3n2C)c1=O (centres unmarked) | 11% |
| COc1ccc(NC(=O)CN(Cc2ccccc2)S(C)(=O)=O)c(OC)c1 | 1.66% |
